Reference: patent publication US20250051407A1, “De novo designed sequence-specific DNA binding proteins” (University of Washington, priority 2023, published 2025)

System: 13 unique dsDNA targets
Assay: All-by-all yeast surface display screen of DBP design hits
Type: binding
Method: And an all-by-all screen of DBP design hits to 13 unique dsDNA targets was performed (FIG. 4, table 2). […] To try to understand these observed binding preferences, each tested DNA sequence was threaded onto each design complex model at all possible base pair alignments, the alternative complex models were relaxed with Rosetta™, and the model with the most favorable Rosetta™ ΔΔG was selected.
Saccharomyces cerevisiae EBY100 strain cultures were grown in C-Trp-Ura medium supplemented with 2% (w/v) glucose. For induction of expression, yeast cells were centrifuged at 6,000 g for 1 min and resuspended in SGCAA medium supplemented with 0.2% (w/v) glucose at the cell density of 1×10^7 cells per ml and induced at 30° C. for 16-24 h. […]
For yeast display characterization of individual designs, including competition assays, DNA sequences encoding the proteins of interest were purchased as Integrated DNA Technologies (IDT) E-Blocks™, transformed into yeast cells, and incubated in 96 well culture plates. […] For each individual sample, gating of the expression population was performed using the CytoFlow™ Gaussian Mixture Model and the ratio of SAPE channel intensity to FITC channel intensity (binding signal/expression signal) was calculated for all gated expression events of the sample.

B1: DBP85: designed DNA-binding protein, SEQ ID NO: 44, DNA target A (protein)
chain: TLSQLTPQEMRIARLASEGMPNREIATRLFISPRTVEWHLRRAMRKLGVRNRTQMARRIDTRL
Number of the 13 tested DNA target sequences preferentially bound (1 μM dsDNA with avidity, including designed target sequence): less than 3 | Binding specificity versus design models (all-by-all screen with Rosetta-predicted motifs): bound with specificity closely consistent with the design models
